Results taken from PubChem BioAssay AID488969 (Vanderbilt High Throughput Screening Facility, 2010).
In all, about 110,000 compounds were measured (“z-score”: median about -0.1, highest 2% from about 2 on). The list shows a part of the results. The source made the active and inactive calls.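 Rule for the calls: active = z-score in the third read window above 3 or below -3; inactive = the rest.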

Biological target: Metabotropic glutamate receptor 8 (Rattus norvegicus) (UniProt P70579)
Test: rat mGluR8 modulators via GIRK flux, primary screen, cell-based, thallium flux, HTS (AID 488969)
Settings: HEK293 rat mGluR8, GIRK (G protein-gated inwardly rectifying potassium channel) thallium flux, FluoZin2; at 10 µM; stronger effect = higher value; submaximal glutamate (EC20) added with thallium

Sequence of UniProt P70579 (P70579 whole entry, looked up): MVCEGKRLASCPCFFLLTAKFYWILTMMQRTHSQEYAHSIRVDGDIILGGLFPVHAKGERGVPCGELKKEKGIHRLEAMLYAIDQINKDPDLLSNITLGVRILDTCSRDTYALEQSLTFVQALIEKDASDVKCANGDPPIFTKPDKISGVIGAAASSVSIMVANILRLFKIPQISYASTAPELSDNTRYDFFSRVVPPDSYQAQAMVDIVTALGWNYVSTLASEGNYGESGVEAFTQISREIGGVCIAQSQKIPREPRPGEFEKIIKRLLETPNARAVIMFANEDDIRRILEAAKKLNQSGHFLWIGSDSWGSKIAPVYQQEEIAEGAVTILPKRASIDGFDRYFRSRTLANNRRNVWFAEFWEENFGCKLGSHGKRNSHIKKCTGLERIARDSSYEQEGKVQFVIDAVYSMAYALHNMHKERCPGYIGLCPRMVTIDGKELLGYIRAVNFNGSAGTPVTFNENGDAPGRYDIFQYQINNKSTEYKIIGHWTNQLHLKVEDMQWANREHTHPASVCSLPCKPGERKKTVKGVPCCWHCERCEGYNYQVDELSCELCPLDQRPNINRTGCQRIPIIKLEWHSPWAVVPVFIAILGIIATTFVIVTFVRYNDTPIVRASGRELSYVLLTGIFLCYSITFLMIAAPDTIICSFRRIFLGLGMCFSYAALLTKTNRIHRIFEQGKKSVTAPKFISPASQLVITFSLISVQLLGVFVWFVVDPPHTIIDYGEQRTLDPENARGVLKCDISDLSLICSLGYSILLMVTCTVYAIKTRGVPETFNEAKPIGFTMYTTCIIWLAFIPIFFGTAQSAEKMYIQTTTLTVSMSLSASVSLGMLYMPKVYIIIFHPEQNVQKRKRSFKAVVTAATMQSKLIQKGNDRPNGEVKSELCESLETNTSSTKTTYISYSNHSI

Row | Compound | z-score
1 | CC(C)CC(=O)Nc1ccc(S(=O)(=O)NCc2ccco2)cc1 | -0.479
2 | O=C(Nc1ccccc1)N1CC=C(c2ccc(F)cc2)CC1 | 0.309
3 | Nn1cnc2sc3c(c2c1=O)CCC3 | 0.195
4 | Cc1[nH]n(-c2cccc3ccccc23)c(=O)c1/C=N/c1sc2c(c1C#N)CCC2 | active: 8.05
5 | CCN(CC)S(=O)(=O)c1ccc(OC)c(NC(=S)Nc2ccc(C)c(C)c2)c1 | -0.259
6 | C/C(=N/N=C/c1ccc(N(C)C)cc1)c1ccccc1 | 0.00335
7 | COc1ccc(CNC(=O)COC(=O)CCCOc2ccc(Cl)cc2Cl)cc1OC | -0.0987
8 | CCN(CC)Cc1cc(NC2=NS(=O)(=O)c3ccccc32)ccc1OC(=O)C(C)C | -1.44
9 | O=[N+]([O-])c1ccc2c(c1)C(N1CCOCC1)/C(=C/COc1ccc3ccccc3c1Br)O2 (centres undefined) | -0.0823
10 | CN1CCN(C(=O)c2sc(=S)n(-c3ccccc3)c2N)CC1 | active: 11.1
11 | CCOC(=O)Cn1c(-c2ccccc2)nc2ccccc2c1=O | 0.194
12 | Cc1ccc(NC(=O)C2(c3ccccc3)CCCC2)nc1 | -0.464
13 | Cc1cc(C(=O)NCCCn2ccnc2)cs1 | 0.256
14 | Cc1cccc(NC(=O)CSc2nnnn2C)n1 | 0.2
15 | CC(=O)Nc1ccc(OCC(O)CN2CCN(S(=O)(=O)c3ccc(NC(C)=O)cc3)CC2)cc1 (centres undefined) | 0.116
16 | COc1ccc(C2C(C#N)=C(N)Oc3cc(C)[nH]c(=O)c32)c(OC)c1OC (centres undefined) | -0.0016
17 | COc1ccc(/C=c2\s/c(=C(/C#N)C(=O)NCc3ccco3)n(-c3ccccc3)c2=O)cc1 | 0.186
18 | COc1ccc(C(C)=O)c(Oc2nc(CN3CCOCC3)nc3scc(-c4cccs4)c23)c1 | -0.61
19 | Nc1c(C(=O)NCCc2ccc(Cl)cc2)sc2ccc(S(=O)(=O)N3CCCCC3)cc12 | 0.087
20 | COc1cccc(C(=O)/C=C/Nc2cccc(O)c2)c1 | -0.665
21 | CC(C)C(NC(=O)OCc1ccccc1)C(=O)O (centres undefined) | -0.112
22 | Cc1ccccc1-c1nsc(SCC(=O)c2ccc(Cl)cc2)n1 | 0.311

Row | Compound | z-score
23 | CCCCOC(=O)c1cccc(NC(=O)CC)c1 | -0.14
24 | CN1CCN(C(=O)c2ccc3c(c2)NC(=O)C(N2CCOCC2)S3)CC1 (centres undefined) | -0.0177
25 | Cc1sc2ncnc(N/N=C/c3ccc(O)cc3)c2c1C | -0.33
26 | CCn1c(-c2ccccc2Cl)nn(CC(=O)Nc2ccccc2C)c1=S | -0.186
27 | O=C(CCSc1ccccc1)Nc1ccc(OCc2ccccc2)cc1 | -0.315
28 | CCOc1ccc(C(=O)Nc2cc(-c3nc4ccccc4[nH]3)ccc2C)cc1[N+](=O)[O-] | -0.431
29 | O=S(=O)(c1cccc(-n2cnnn2)c1)N1CCOCC1 | 0.693
30 | COC(=O)c1c(C)c(C)nc(N)c1C#N | 1.3
31 | O=C(CNS(=O)(=O)c1c(Cl)cccc1Cl)OCc1csc(-c2ccccc2)n1 | -0.71
32 | CCn1c(NCc2ccccc2NS(=O)(=O)c2ccc(C)cc2)nc2ccccc21 | -0.0308
33 | CC(C)CC(O)(CC(C)C)C(=O)NNc1ccccc1 | -0.454
34 | Cc1cccc(NC(=O)CCOc2ccccc2)c1 | 0.192
35 | CCCC(=O)Nc1cccc(-c2nc3ccccc3o2)c1 | -0.457
36 | O=c1[nH]c(/C=C/c2ccccc2[N+](=O)[O-])nc2ccccc12 | -0.122
37 | COC(=O)C1=C(C)N(c2cccc(C(C)=O)c2)C(=O)C1 | -0.0346
38 | O=C(NCC1CCCO1)c1csc2c1CCCCC2 (centres undefined) | 0.253
39 | CC1(C)Oc2ccc(C(=O)N3CCc4ccccc43)cc2N(CC(=O)N2CCCC2)C1=O | -0.384
40 | Cc1cc(C(=O)NCCCc2ccccc2)no1 | -0.145
41 | N=C1/C(=C/c2cccn2Cc2ccc(Cl)cc2)C(=O)N=C2SC=CN12 | 0.0351
42 | COc1ccc2[nH]c(=O)c(CN(Cc3nnnn3Cc3ccc(F)cc3)CC3CCCO3)cc2c1 (centres undefined) | -0.725
43 | CC(/C=N\NC(=O)c1cccnc1)c1ccccc1 (centres undefined) | -0.201
44 | Cc1ccc(-c2nc3ccccc3s2)cc1NC(=S)NC(=O)/C=C/c1ccco1 | 0.194

Row | Compound | z-score
45 | COc1ccc(OC)c(NC(=O)C2COc3ccccc3O2)c1 (centres undefined) | 0.757
46 | O=C(Nc1cc([N+](=O)[O-])ccc1F)c1cccs1 | -0.0753
47 | O=C(Nc1ccccc1N1CCCCC1)c1ccc(N2C(=O)c3ccccc3C2=O)cc1 | 0.165
48 | CC(=O)Nc1ccc(S(=O)(=O)NCC(=O)OCc2ccccc2)cc1 | -0.253
49 | CCN1/C(=C2\SC(=S)N(Cc3ccccc3)C2=O)Sc2ccccc21 | -0.0706
50 | COc1ccc(S(=O)(=O)Nc2ccccc2C(=O)NCc2ccco2)cc1 | -0.614
51 | CCOC(=O)N1CCN(C(=O)c2ccc(N(Cc3ccc(C)cc3)S(C)(=O)=O)cc2)CC1 | 0.151
52 | CCCn1nnc(NC(=O)c2ccc(-c3ccccc3)cc2)n1 | -0.862
53 | Oc1ccccc1CNc1cnc2ccccc2c1 | 0.084
54 | COC(=O)c1cccc(NC(=O)CN(c2ccc3c(c2)OCO3)S(C)(=O)=O)c1C | -0.13
55 | Cc1ccc(N(C)C(=O)N2CCN(S(=O)(=O)c3ccc(C)c(C)c3)CC2)cc1 | 0.307
56 | CN1C=CC=C/C1=C(\C#N)c1nc2ccccc2[nH]1 | 0.292
57 | CC(C)C(NS(=O)(=O)c1cccs1)C(=O)Nc1nc(C(C)(C)C)cs1 (centres undefined) | -0.259
58 | Cc1nnc(Oc2ccccc2)c2ccccc12 | 0.0484
59 | Cc1c(C(=O)N2CCC(C)CC2)oc2ccc(S(=O)(=O)N3CCC4(CC3)OCCO4)cc12 | -0.178
60 | COC(=O)c1cccc(NC(=O)CSc2nnc(COc3ccc(C#N)cc3)n2-c2ccccc2)c1 | -0.426
61 | c1cncc(-c2nnc(SCc3nc4ccccc4[nH]3)o2)c1 | 0.802
62 | CCS(=O)(=O)c1ccc2oc(Nc3cc(C)cc(C)c3)nc2c1 | -0.316
63 | COc1ccccc1NC(=O)C(C)N1CCN(C/C=C/c2ccccc2)CC1 (centres undefined) | 0.673
64 | O=C(O)CC(c1cccc2ccccc12)n1cccc1 (centres undefined) | -0.0602
65 | COc1ccc(S(=O)(=O)N(C)CC(=O)NC2CC2)cc1 | -0.0627
66 | Cc1ccc(N=C2NC(=O)C(CC(=O)O)S2)cc1 (centres undefined) | -0.0604

Row | Compound | z-score
67 | COC(=O)c1ccccc1NC(=O)CS(=O)(=O)Cc1nc(-c2ccc(C)cc2)oc1C | 0.0108
68 | Cc1ccc(/C=C/C(=O)NC(C)c2ccccc2)cc1 (centres undefined) | -0.0101
69 | COC(=O)c1c(NC(=O)C(C)C)sc2c1C(C(=O)OC)CC2 (centres undefined) | 0.214
70 | CCC(C)(C(=O)Nc1ccc2c(c1)OCCO2)N(C(C)=O)c1ccc(C(N)=O)cc1 (centres undefined) | -0.102
71 | Cc1cc(C)nc(/N=C2\NC(=O)CC(C(=O)O)N2c2ccc(Oc3ccccc3)cc2)n1 (centres undefined) | -0.468
72 | Cc1ccc(S(=O)(=O)N2CCCCC2C(=O)N2CCN(c3ccccc3F)CC2)cc1 (centres undefined) | -0.123
73 | Cc1ccc(NC(=O)CCC(=O)NNC(=O)Cc2ccccc2)cc1C | -0.223
74 | CCOC(=O)C1CCCN(c2c(N3CCC(N4CCCCC4)CC3)c(=O)c2=O)C1 (centres undefined) | -0.283
75 | Cc1cc(-c2n[nH]c(=S)n2/N=C/c2ccc(Cl)c([N+](=O)[O-])c2)n[nH]1 | -0.643
76 | COc1ccc(C2NCCC3(O)CCCCC23)c(OC)c1OC (centres undefined) | -0.178
77 | CCN1CCCC1CNC(=O)C1c2cc(OC)c(OC)cc2C(=O)N(C)C1c1cccnc1 (centres undefined) | 0.289
78 | Cc1nc2ccc(S(=O)(=O)NCC(=O)N3CCC(N4CCCCC4)CC3)cc2s1 | -0.313
79 | Cc1ccc(Nc2nc(N3CCN(C)CC3)nc(N)c2[N+](=O)[O-])cc1C | -0.41
80 | COc1ccc(C2=NO[C@@H]3C(=O)N(Cc4ccccc4)C(=O)[C@H]23)cc1OC | -0.0568
81 | CCOC(=O)c1nnn(-c2nonc2N)c1-c1cccs1 | 0.422
82 | CCc1nc(N2CCN(Cc3ccc4c(c3)OCO4)CC2)c2oc3ccccc3c2n1 | -0.164
83 | Cc1c(NC(=O)Cn2nc(C(F)(F)F)c3c2CCCC3)c(=O)n(-c2ccccc2)n1C | 0.0686
84 | COC(=O)c1cccc(OCC(O)Cn2cnc3cc(C)c(C)cc32)c1 (centres undefined) | 0.468
85 | CCOc1ccccc1C1C(C(N)=O)=C(C)Nc2nc(CCCO)nn21 (centres undefined) | -0.297
86 | COc1cc(/C=C2\SC(=S)N(CC(=O)Nc3cccnc3)C2=O)cc(OC)c1OC | -2.09
87 | CC1=C(C(=O)Nc2ccccc2)C2(CCCCC2)C(C#N)=C(S)N1 | 0.112
88 | COc1ccc(C(=O)c2c(C(F)(F)F)oc3c2C(=O)c2ccccc2C3=O)cc1 | -0.134

Row | Compound | z-score
89 | O=C(Nc1cccnc1Cl)c1cccnc1Cl | -0.102
90 | COc1ccc(NC(=O)CCCN2C(=O)/C(=C\c3ccco3)SC2=S)cc1 | -0.159
91 | Cc1ccnc2nc(C(=O)Nc3nnc(CC(C)C)s3)nn12 | -0.0103
92 | O=C(CN1CCCC1)Nc1ccccc1Cl | 0.447
93 | O=C(Cn1cnc2scc(-c3ccccc3)c2c1=O)N1CCOCC1 | -0.259
94 | CC(C)CC(=O)Nc1ccc(C(=O)NNC(=S)NC(=O)C2CCCCC2)cc1 | 0.595
95 | CC(C)n1c(Nc2ccccc2)nc2ccccc21 | -1.16
96 | COc1ccc2c(CC(=O)OCC(=O)Nc3sc4c(c3C#N)CCC(C)C4)coc2c1 (centres undefined) | -0.086
97 | CCOc1ccc(NC(=O)N[C@@H](CCSC)C(=O)OC)cc1 | 0.712
98 | Cc1sc2ncn(CC(=O)OCC(=O)NC(C)(C)C)c(=O)c2c1C | 1.21
99 | CCN(CC)S(=O)(=O)c1cccc(NC(=O)Nc2cccc(C(F)(F)F)c2)c1 | -0.0411
100 | COc1ccccc1NC(=O)c1ccc(NC(=O)CSc2nncn2C)cc1 | -0.137
101 | Cc1cc(C)nc(N(C#N)CC(=O)N2CCC(C(N)=O)CC2)n1 | -0.183
102 | O=C(COc1ccccc1[N+](=O)[O-])N/N=C/c1ccc(O)cc1 | -0.203
103 | COc1ccc(S(=O)(=O)Cc2ccc(C(=O)NC3CCCC3)o2)cc1 | -0.108
104 | COC(=O)c1ccc2[nH]c(C)cc(=O)c2c1 | 0.284
105 | COC(=O)c1c(C)n(-c2ccc(OC)cc2)c2ccc(O)cc12 | -0.559
106 | Cc1ccc(NCC(=O)c2ccccc2)cc1Cl | -0.202
107 | COc1ccccc1N1CCc2c(C)nc3c(OC)cccc3c21 | -0.0829
108 | Cc1cccc2cc(CN(CCCO)C(=O)Nc3ccccc3Cl)c(=O)[nH]c12 | -0.0225
109 | COc1ccc(N2COC3c4cccc5cccc(c45)C32)cc1 (centres undefined) | -0.311
